Hit rate of the full screen: of about 45,000 compounds, about 65 (0.1%) were called active. The call rests on the fitted dose curve; in most records, active means well fitted activation curve with a large enough effect; inconclusive means small, poorly fitted or top-dose-only effect; inactive means no such curve, though single readings can be large or run the other way. Some of the results follow.

For the test, the target named is Galactocerebrosidase (Homo sapiens) (UniProt P54803). Description: A Novel Cell-Based Assay to Identify Small Molecules for B -Galactocerebrosidase. Further: 0% is about no effect; nearly all actives have a fitted effect of over 65% in size. To be noted: 145M-Twi-hGALC-G270D cells (Twitcher mouse brain line with human GALC G270D), HMU-beta-Gal fluorescence, 48 h; series mostly up to 57.5 µM; activation: at the top concentration. Summed up: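 Brain-derived Twitcher mouse 145M-Twi cells stably expressing human GALC-G270D or wild-type GALC, treated live, then residual GALC activity read by fluorescence of HMU-b-Gal substrate (0.1 mM final) in citrate-phosphate buffer pH 5.2 with sodium taurocholate. Signal increase indicates enhancement.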
Chain of UniProt P54803 (P54803 whole entry, looked up): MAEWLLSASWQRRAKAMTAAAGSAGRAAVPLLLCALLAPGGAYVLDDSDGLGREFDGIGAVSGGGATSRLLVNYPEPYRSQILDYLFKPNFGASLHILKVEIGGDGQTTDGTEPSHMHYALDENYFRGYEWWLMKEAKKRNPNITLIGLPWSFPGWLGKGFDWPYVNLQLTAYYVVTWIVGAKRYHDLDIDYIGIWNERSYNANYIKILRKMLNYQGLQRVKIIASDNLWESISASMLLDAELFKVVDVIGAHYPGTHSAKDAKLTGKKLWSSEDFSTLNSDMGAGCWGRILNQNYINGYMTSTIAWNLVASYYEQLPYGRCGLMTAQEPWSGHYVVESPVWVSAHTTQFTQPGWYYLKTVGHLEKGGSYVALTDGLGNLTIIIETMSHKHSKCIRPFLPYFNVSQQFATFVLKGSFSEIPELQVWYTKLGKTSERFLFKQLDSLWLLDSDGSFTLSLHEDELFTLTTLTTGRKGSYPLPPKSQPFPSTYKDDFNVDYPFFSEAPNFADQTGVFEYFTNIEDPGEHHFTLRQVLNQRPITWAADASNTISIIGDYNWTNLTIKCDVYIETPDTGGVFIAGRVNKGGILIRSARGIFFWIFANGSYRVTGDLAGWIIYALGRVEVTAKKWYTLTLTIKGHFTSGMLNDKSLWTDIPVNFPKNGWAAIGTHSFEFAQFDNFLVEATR
In the case of `COc1ccc(C)cc1NC(=O)N1CCN(S(=O)(=O)c2ccc3c(ccn3C)c2)CC1`, the “activation” value was inactive: -11.4%.

Regarding `COc1cccc(CNC(=O)c2cc(-c3ccc(Cl)s3)nc3ccccc23)c1`, the “activation” value was inactive: -5.15%.

For `COc1ccc(NC(=O)c2nc(S(C)(=O)=O)ncc2N(Cc2ccc(C)cc2)Cc2ccco2)cc1Cl`, the “activation” value was inactive: -8.2%.

For the compound `Cc1cccc(CSc2nc3c(sc4ccccc43)c(=O)n2CCC(=O)NC(C)C)c1`, the “activation” value is inactive: 6.32%.

Regarding `Cc1ncc(CO)c2c1Oc1nc(-c3ccc(Cl)cc3)nc(SCC(=O)N3CCCCC3)c1C2`, the “activation” value is inactive: -7.8%.

Regarding `CC(C)(C)NC(=O)C1CCN(c2nc3ccccc3nc2C(F)(F)F)CC1`, the “activation” value is inactive: -0.56%.

With `CCCCc1nnc(SCc2cc(=O)c3cc(F)ccc3[nH]2)n1C`, the “activation” value is inactive: 7.57%.

Turning to `COc1ccc(-c2cc(C(F)(F)F)nc(SCCC(=O)Nc3ccc(OC)c(OC)c3)n2)cc1`, the “activation” value is inactive: -0.411%.

As to `Cc1ccc(NC(=O)c2sc3nc(-c4cccs4)ccc3c2N)cc1F`, the “activation” value is inactive: -21.4%.

On to `CCN1CCC(N(Cc2ccc3c(c2)OCO3)C(=O)Nc2cc(F)ccc2F)CC1`, for which the “activation” value was inactive: -5.02%.

As to `CCN(CC)C(=O)c1c(NC(=O)c2cccc(C)c2)sc2c1CCC(C)C2` (configuration not stated), the “activation” value was inactive: -8.97%.

For `O=C(O)c1ccccc1Nc1cc(Cl)ccc1C(=O)O`, the “activation” value is inactive: 3.62% [at 23.8 µM].

As for `O=c1[nH]c2cc(Br)ccc2n2cccc12`, the “activation” value was inactive: -12.7%.

Turning to `Cc1cc(C)c(-c2n[nH]c3c2C(c2ccccc2F)N(Cc2ccco2)C3=O)c(O)c1` (configuration not stated), the “activation” value is inactive: -16.6%.

Turning to `O=C(c1cnc(N2CCOCC2)c2ccccc12)N1CCN(c2ccccc2)CC1`, the “activation” value is inactive: 4.01%.

`COc1ccc(CNC(=O)CN2C(=O)CC(c3ccc(C)c(C)c3)=Nc3ccccc32)cc1`: the “activation” value is inactive: -13.1%.

For the compound `Cc1ccc(-n2ncc3c(NC4CCCCCC4)ncnc32)cc1`, the “activation” value was inactive: 1.14%.

For the compound `COc1ccc(C(=O)NCCn2cc(SCc3c(F)cccc3Cl)c3ccccc32)cc1`, the “activation” value is inactive: -2.92%.

Consider `O=C(CN1C(=O)COc2ccc(S(=O)(=O)NC3CCCC3)cc21)NCc1ccc(Cl)cc1`, for which the “activation” value is inactive: -12.1%.

`CCOc1ccc(CNC(=O)CSc2nnc(C)c3c(C)n(-c4ccc(Cl)cc4)nc23)cc1`: the “activation” value is inactive: -18.2%.

For `CCN(CC)CCSc1c(C(C)C)cnc2c1c(=O)n(C)c(=O)n2C`, the “activation” value is inactive: -12.9%.

Consider `COc1cc(NC(=O)N2CCc3c(sc4c3CCCC4)C2c2ccccc2)cc(OC)c1OC` (configuration not stated), for which the “activation” value was inactive: -8.65%.

As for `COc1ccc(OC)c2sc(N3CCN(C(=O)c4ccco4)CC3)nc12`, the “activation” value was inactive: -0.265%.

For the compound `CN1CCN(C(=O)C(=O)Nc2c3c(nn2-c2ccc(Cl)cc2)CSC3)CC1`, the “activation” value was inactive: -6.24%.

Turning to `Cc1c(C(=O)N2CCC(C)CC2)c(S(=O)(=O)N(Cc2ccccc2)C(C)(C)C)c(C)n1C`, the “activation” value is inactive: -0.944%.

As for `COC(=O)c1ccc(C(=O)OC)c(NC(=O)CN(c2ccccc2)S(=O)(=O)N(C)C)c1`, the “activation” value is inactive: -6.58%.

For `COc1cccc(CNC(=O)CSC2=Nc3ccccc3N=C(c3ccc(F)cc3)C2)c1`, the “activation” value was inactive: -25.5%.

The record behind these values is PubChem BioAssay AID1159614 (National Center for Advancing Translational Sciences (NCATS), 2016).
